{"source": "the RNAGym collection of RNA variant scans (doi:10.1073/pnas.2313332121)", "parents": {"B1": {"name": "TPR 5TU (parent)", "chain": "GGAUCUUCUCGAUCUAACAAAAAAGACAAAUCUGCCACAAAGCUUGAGAGCAUCUUCGGAUGCAGAGGCGGCAGCCUUCGGUGGCGCGAUAGCGCCAACGUUCUCAACUAUGACACGCAAAACGCGUGCUCCGUUGAAUGGAGUUUAUCAUG"}}, "note": "This sample is rich in variants without activity."}
{"variants_of": "B1", "assay": "polymerase ribozyme fitness, log enrichment relative to wild type (log ratio); higher = more active; in vitro selection for triplet polymerase activity", "method_in_brief": "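Mutant libraries of both subunits of a heterodimeric triplet polymerase ribozyme were PCR-built, transcribed, and selected once in triplicate, with frozen incubation at −7 °C and capture of gel-excised extended constructs on streptavidin beads before RT-PCR. Illumina sequencing of input and output libraries was filtered to genotypes with ≥10 input reads and ≥1 read per output. Fitness is the logarithm of genotype enrichment over wild-type enrichment, using inverse-variance-weighted replicate averages. The logarithm is base 2.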"}
{"variant": "G11U C54U C72A U90G G92U U111G U148G", "polymerase ribozyme fitness (log ratio)": "≤ -4.2"}
{"variant": "G11U C57G A119U A121G C149U", "polymerase ribozyme fitness (log ratio)": -2.88}
{"variant": "G11U C79G C85G", "polymerase ribozyme fitness (log ratio)": "≤ -4.2"}
{"variant": "G11U C79G G83U C96U A115U C129A U144G", "polymerase ribozyme fitness (log ratio)": "≤ -4.2"}
{"variant": "G11U C85U A91C", "polymerase ribozyme fitness (log ratio)": "≤ -4.2"}
{"variant": "G11U C93G", "polymerase ribozyme fitness (log ratio)": -3.88}
{"variant": "G11U C93U A115G", "polymerase ribozyme fitness (log ratio)": -2.88}
{"variant": "G11U C103G C123G", "polymerase ribozyme fitness (log ratio)": -2.44}
{"variant": "G11U G25C C32U G50C A60G C95U", "polymerase ribozyme fitness (log ratio)": "≤ -4.2"}
{"variant": "G11U G34A G88A G124A", "polymerase ribozyme fitness (log ratio)": "≤ -4.2"}
{"variant": "G11U G42A G50A C54A C95U G124A", "polymerase ribozyme fitness (log ratio)": "≤ -4.2"}
{"variant": "G11U G42C A47C G74A C96G C105U G140A", "polymerase ribozyme fitness (log ratio)": "≤ -4.2"}
{"variant": "G11U G42U U45G C69U C93U", "polymerase ribozyme fitness (log ratio)": "≤ -4.2"}
{"variant": "G11U G48U G68C C93U A97U C99A", "polymerase ribozyme fitness (log ratio)": "≤ -4.2"}
{"variant": "G11U G50C A52C C72G C76G G81C G94C", "polymerase ribozyme fitness (log ratio)": "≤ -4.2"}
{"variant": "G11U G68A", "polymerase ribozyme fitness (log ratio)": "≤ -4.2"}
{"variant": "G11U G68U C85G U90A A121U", "polymerase ribozyme fitness (log ratio)": "≤ -4.2"}
{"variant": "G11U G88A", "polymerase ribozyme fitness (log ratio)": "≤ -4.2"}
{"variant": "G11U G94A A98C", "polymerase ribozyme fitness (log ratio)": -1.81}
{"variant": "G11U U13A C43U A47G C95A C96G", "polymerase ribozyme fitness (log ratio)": "≤ -4.2"}
{"variant": "G11U U13G A22U A24G A64G A107U G143A U145G", "polymerase ribozyme fitness (log ratio)": "≤ -4.2"}
{"variant": "G11U U13G G25U C35A A60G C87U C103G G152U", "polymerase ribozyme fitness (log ratio)": "≤ -4.2"}
{"variant": "G11U U13G G62U C69U G81A C87U", "polymerase ribozyme fitness (log ratio)": "≤ -4.2"}
{"variant": "G11U U15C C35G C76A G94A U101A", "polymerase ribozyme fitness (log ratio)": "≤ -4.2"}
{"variant": "G11U U15C C35U U82G C93G G126C", "polymerase ribozyme fitness (log ratio)": "≤ -4.2"}
{"variant": "G11U U31A G70A C85U", "polymerase ribozyme fitness (log ratio)": "≤ -4.2"}
{"variant": "G11U U31G G50C A121C C125G", "polymerase ribozyme fitness (log ratio)": "≤ -4.2"}
{"variant": "G11U U44A G92C", "polymerase ribozyme fitness (log ratio)": "≤ -4.2"}
{"variant": "G11U U53A C132U U146G", "polymerase ribozyme fitness (log ratio)": -3.51}
{"variant": "G11U U53A G65A A73U G83C U144A", "polymerase ribozyme fitness (log ratio)": "≤ -4.2"}
{"variant": "G11U U55G A60G G67A C93U", "polymerase ribozyme fitness (log ratio)": "≤ -4.2"}
{"variant": "G11U U56C U78G C85U A89G", "polymerase ribozyme fitness (log ratio)": "≤ -4.2"}
{"variant": "G11U U61A C87U", "polymerase ribozyme fitness (log ratio)": -3.78}
{"variant": "G11U U90G C95G A122G", "polymerase ribozyme fitness (log ratio)": "≤ -4.2"}
{"variant": "A12C A16C U31C C32G U53A C93G C118G U151C", "polymerase ribozyme fitness (log ratio)": "≤ -4.2"}
{"variant": "A12C A16C U53G A97U", "polymerase ribozyme fitness (log ratio)": "≤ -4.2"}
{"variant": "A12C A16G A39U A91C G141C U148G", "polymerase ribozyme fitness (log ratio)": "≤ -4.2"}
{"variant": "A12C A16G A41C A121U", "polymerase ribozyme fitness (log ratio)": -1.69}
{"variant": "A12C A16G C18U A37U C76A C95U C149A", "polymerase ribozyme fitness (log ratio)": "≤ -4.2"}
{"variant": "A12C A16U U145G", "polymerase ribozyme fitness (log ratio)": -2.26}
{"variant": "A12C A17C G58C G70C G92C C114G C116U", "polymerase ribozyme fitness (log ratio)": "≤ -4.2"}
{"variant": "A12C A17G A24C G74A G141U", "polymerase ribozyme fitness (log ratio)": "≤ -4.2"}
{"variant": "A12C A17U A40U C57G C95G C103U G133C G141C", "polymerase ribozyme fitness (log ratio)": "≤ -4.2"}
{"variant": "A12C A19C C99U", "polymerase ribozyme fitness (log ratio)": -1.52}
{"variant": "A12C A20C G74C U82G C95G U111C", "polymerase ribozyme fitness (log ratio)": "≤ -4.2"}
{"variant": "A12C A20G G25A A30G U44A A89G U145G", "polymerase ribozyme fitness (log ratio)": "≤ -4.2"}
{"variant": "A12C A20U A39U C54U U55A C99U", "polymerase ribozyme fitness (log ratio)": "≤ -4.2"}
{"variant": "A12C A20U C79U G84U", "polymerase ribozyme fitness (log ratio)": "≤ -4.2"}
{"variant": "A12C A20U U53C A89G", "polymerase ribozyme fitness (log ratio)": -3.96}
{"variant": "A12C A20U U61A G92U C131A", "polymerase ribozyme fitness (log ratio)": "≤ -4.2"}
{"variant": "A12C A21C G34A C69U C76U C85A C108U G112A U139A G143C U145G", "polymerase ribozyme fitness (log ratio)": "≤ -4.2"}
{"variant": "A12C A21G C35G A39C G59U C87U", "polymerase ribozyme fitness (log ratio)": "≤ -4.2"}
{"variant": "A12C A21U A64C G84U U127C A138U", "polymerase ribozyme fitness (log ratio)": "≤ -4.2"}
{"variant": "A12C A22C G50C G92C C125U", "polymerase ribozyme fitness (log ratio)": "≤ -4.2"}
{"variant": "A12C A22G C32G C51G A60U U77A G81C G128A U148C", "polymerase ribozyme fitness (log ratio)": "≤ -4.2"}
{"variant": "A12C A22G C36U C38U G58U U109G", "polymerase ribozyme fitness (log ratio)": "≤ -4.2"}
{"variant": "A12C A22U A23G A40C A52U A60G A91C C96A C99A C105U C123G U135A", "polymerase ribozyme fitness (log ratio)": "≤ -4.2"}
{"variant": "A12C A22U A24G A29C G48C G50C C93U C95U C129G", "polymerase ribozyme fitness (log ratio)": "≤ -4.2"}
{"variant": "A12C A23C C54A G81U G92C C99A", "polymerase ribozyme fitness (log ratio)": "≤ -4.2"}
{"variant": "A12C A23C U56A C87U G88C A91G C103G", "polymerase ribozyme fitness (log ratio)": "≤ -4.2"}
{"variant": "A12C A23G G25U U31G G86U C95G G128A G140U", "polymerase ribozyme fitness (log ratio)": "≤ -4.2"}
{"variant": "A12C A23G G34A U56G C87A C95G C99A G136U", "polymerase ribozyme fitness (log ratio)": "≤ -4.2"}
{"variant": "A12C A23U A39C A41C C87A G100C G117A", "polymerase ribozyme fitness (log ratio)": "≤ -4.2"}
{"variant": "A12C A23U A49C G62A A91U U109G A137C", "polymerase ribozyme fitness (log ratio)": "≤ -4.2"}
{"variant": "A12C A23U G42C A47C G80C C85G C123G G126C A147G", "polymerase ribozyme fitness (log ratio)": "≤ -4.2"}
{"variant": "A12C A23U U53G C54A U90G U146C", "polymerase ribozyme fitness (log ratio)": "≤ -4.2"}
{"variant": "A12C A24G C85U C95U A120G", "polymerase ribozyme fitness (log ratio)": "≤ -4.2"}
{"variant": "A12C A24U A37G A52C C75U C93U", "polymerase ribozyme fitness (log ratio)": "≤ -4.2"}
{"variant": "A12C A24U G58U C79A C103G", "polymerase ribozyme fitness (log ratio)": "≤ -4.2"}
{"variant": "A12C A26C G92C", "polymerase ribozyme fitness (log ratio)": -3.66}
{"variant": "A12C A26G U61A U127A", "polymerase ribozyme fitness (log ratio)": "≤ -4.2"}
{"variant": "A12C A28C A39U C57A G81A C85A", "polymerase ribozyme fitness (log ratio)": "≤ -4.2"}
{"variant": "A12C A28G A29U A49U U55A G62C G67C G83C A142U U144G", "polymerase ribozyme fitness (log ratio)": "≤ -4.2"}
{"variant": "A12C A28G A30G C32A A52G C79U G86C A91U G136A G143C U145G", "polymerase ribozyme fitness (log ratio)": "≤ -4.2"}
{"variant": "A12C A29U U56G C85G C96G G140C A147U", "polymerase ribozyme fitness (log ratio)": "≤ -4.2"}
{"variant": "A12C A30C U31A A39U C87A", "polymerase ribozyme fitness (log ratio)": "≤ -4.2"}
{"variant": "A12C A30G C38A C51A U56G C85G C95U A106G U111A", "polymerase ribozyme fitness (log ratio)": "≤ -4.2"}
{"variant": "A12C A30G G50C C95U", "polymerase ribozyme fitness (log ratio)": "≤ -4.2"}
{"variant": "A12C A37C C75G C76A C95G G124U G136U", "polymerase ribozyme fitness (log ratio)": "≤ -4.2"}
{"variant": "A12C A37C U53C G86U A97G A113U", "polymerase ribozyme fitness (log ratio)": "≤ -4.2"}
{"variant": "A12C A37U C87G C125G", "polymerase ribozyme fitness (log ratio)": "≤ -4.2"}
{"variant": "A12C A39U A64C C72U A110U G117U", "polymerase ribozyme fitness (log ratio)": "≤ -4.2"}
{"variant": "A12C A39U A89G C123U C125U U146G", "polymerase ribozyme fitness (log ratio)": "≤ -4.2"}
{"variant": "A12C A40G A41U A52C C54U A66G C95U", "polymerase ribozyme fitness (log ratio)": "≤ -4.2"}
